The record followed here is ChEMBL document CHEMBL1201862, “PubChem BioAssay data set” (2004).

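Protocol summary: plate cells (96-well), add compound at 5 concentrations, incubate 48 h, interpolate endpoints linearly. GI50 is the concentration that inhibits growth by half.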 Activity calls are given as the source filed them. Rule as the data show it: active = GI50 up to about 1.1 µM and inactive = higher.

This assay relates to NCI-H322M. In words: NCI anticancer screen, dose series, 48 h.
Consider `Clc1ccc2c(c1)N(CCCN1CCCC13CCCCC3)c1ccccc1S2`, for which the GI50 was inactive: 18.8 µM. Take `N=C(N)NCCNC(=N)N`: the GI50 is inactive: > 100 µM. `CCOC(=O)C(NCc1ccccc1)(NC(=O)c1ccccc1)C(F)(F)F` (centres undefined): the GI50 was inactive: > 100 µM. On to `COc1cc([C@@H]2c3cc4c(cc3[C@@H](NCCNCCO)[C@H]3COC(=O)[C@H]23)OCO4)cc(OC)c1O`, for which the GI50 was inactive: 9.51 µM. Take `CCCCCCCCOC(=O)c1cc([N+](=O)[O-])c(Sc2[nH]cnc3ncnc2-3)c([N+](=O)[O-])c1`: the GI50 was inactive: 4.93 µM. Take `OCCCSCCO`: the GI50 was inactive: > 100 µM.

Turning to `CCN(CC)CC[n+]1ccc2c(C)c3[nH]c4ccccc4c3c(C)c2c1`, the GI50 is active: 1.11 µM.

As for `COC1=CC(=O)C2=C(C1=O)[C@H]1CC[C@]3(C)C(=O)CC[C@H]3[C@@H]1CC2`, the GI50 is inactive: > 100 µM. With `CN(C)c1ccc(C(=C(c2ccc(N(C)C)cc2)c2ccc(N(C)C)cc2)c2ccc(N(C)C)cc2)cc1` the figure was inactive: 31.6 µM; with `NC(=S)SC1=NC(=O)C2(NN1)c1ccccc1-c1ccccc12`, inactive: > 10 µM; with `O=C1CC[C@@]23CC(=O)O[C@@H]2CCCC3C1` (some centres undefined), inactive: > 100 µM. On to `C(=C\c1cc(-c2ccc3ccccc3n2)nc2ccc3ccccc3c12)/c1ccc2ccccc2n1`, for which the GI50 is inactive: > 100 µM.

In the case of `CNC(=O)N(C)/N=N/CCCl`, the GI50 is inactive: > 100 µM. With `O=c1c2nc3ccccc3c(=O)n2ncn1-c1ccccc1Cl` the figure was inactive: > 100 µM; with `CCN(CC)C(=O)Cc1c(C(=O)N(CC)CC)c(=O)nc2sccn12`, inactive: > 100 µM. Regarding `Cn1cc2ccccc2c1-c1nc(F)nc(Oc2ccc3c(c2)CC[C@@H]2C3CC[C@@]3(C)C2C[C@H](O)[C@@H]3O)n1` (some centres undefined), the GI50 was inactive: 20.3 µM. Consider `O=c1sc2c(s1)-c1sc(=O)sc1SS2`, for which the GI50 was inactive: > 100 µM. For `COc1cccc2c1-c1nc(N)c3c(OC)cccc3c1C2=O` the value was inactive: 44 µM; for `O=C(N/N=C\c1ccc([N+](=O)[O-])cc1)Nc1ccccc1`, inactive: > 100 µM; for `COc1cc2oc(=O)cc(C)c2c(OC)c1OC(C)=O`, inactive: > 100 µM. With `O=C1CN2C(Cl)(Cl)C2(c2ccccc2)c2cc(Cl)ccc2N1CC(F)(F)F` (centres undefined) the figure was inactive: 27.5 µM; with `N#C/C(=C\c1c(O)cc(O)cc1O)C(N)=O`, inactive: > 100 µM. For `C/C(=N\n1c(Cc2ccccc2)n[nH]c1=O)c1ccccc1` the value was inactive: > 100 µM; for `Cc1nn(C2OC(CO)C(O)C(F)C2O)c(=O)[nH]c1=O` (centres undefined), inactive: > 100 µM; for `CCOC(=O)NC(=S)c1ccc(O)c2ccccc12`, inactive: 45.9 µM. With `NC(=S)N/N=C1\CCCCC1C(O)(C(F)(F)Cl)C(F)(F)Cl` (centres undefined), the GI50 was inactive: > 10 µM. Regarding `COc1cccc(C2ON=C(c3ccccc3)N2C23CC4CC(CC(C4)C2)C3)c1` (centres undefined), the GI50 is inactive: > 10 µM. For `Cc1ccc(/N=N/C(C2=NC(=O)CS2)c2nc3ccccc3[nH]2)cc1` (centres undefined) the value was inactive: > 100 µM; for `CO[C@H]1O[C@@H]2CO[C@@H](c3ccccc3)O[C@H]2[C@@H]2CC=CCC[C@]12O`, inactive: > 100 µM. With `O=C(O)c1ccc(C2C3C=CC(C3)C2[N+](=O)[O-])cc1` (centres undefined), the GI50 was inactive: > 100 µM. In the case of `OC1(c2ccccc2)CCCCCCCCC(O)(c2ccccc2)CCCCCCCC1` (centres undefined), the GI50 is inactive: > 100 µM. For `N#Cc1sc2c(c1OC(=O)c1ccc(Cl)cc1Cl)c(=O)n(-c1ccccc1)c(=S)n2-c1ccccc1` the value was inactive: 44.8 µM; for `COc1cc2ccc(CC(=O)O)cc2cc1OC`, inactive: > 100 µM. With `CCOC(=O)C(CCC(N)=O)(CCC(=O)OC)C(=O)OCC`, the GI50 is inactive: > 100 µM.

Consider `C=CC/N=C(\S)Nc1sc2c(c1C(=O)OCC)CC(C)CC2` (centres undefined), for which the GI50 is inactive: 26.7 µM. For `CCOP(=S)(OCC)Oc1ccc2c(c1)OC(=O)C1(Cl)C2(C)C2(Cl)C(=O)Oc3cc(OP(=S)(OCC)OCC)ccc3C12C` (centres undefined) the value was inactive: 15.8 µM. Consider `CC12CCC(C(Nc3ccccn3)C1=O)C2(C)C` (centres undefined), for which the GI50 was inactive: > 100 µM. For the molecule `Cc1cccc(Nc2cnc(N)nc2N)c1`, the GI50 was inactive: > 100 µM.

Turning to `Nc1nc(Cl)cc(NCC2(O)CCC2)n1`, the GI50 is inactive: > 100 µM. For `O=[N+]([O-])/C=C/c1cc2ccccc2[nH]1`, the GI50 was inactive: 17.1 µM.

For the molecule `COC1=CC2=NCCc3n[nH]c(c32)C1=O`, the GI50 was inactive: 27.4 µM.

Regarding `NC(=O)NCCSC1CCCCC1O` (centres undefined), the GI50 was inactive: > 100 µM.

As for `COC(c1ccsc1)C(C#N)(C#N)/N=C/c1ccsc1` (centres undefined), the GI50 is inactive: 12.9 µM. In the case of `O=C1CC[C@H]2CNC(=O)C[C@H]2C1`, the GI50 was inactive: > 100 µM. As to `CC(=O)OC1C/C(C)=C/CCC(C)/C=C/C2(C)CCC(C(C)(C)O)C12` (centres undefined), the GI50 is inactive: 67.3 µM. As for `Cc1ccc2c(=O)c(-c3n[nH]c(=S)s3)c[nH]c2n1`, the GI50 is inactive: > 100 µM. Take `Cc1cn(C2CC(O)C(CO)O2)c(=O)n2nnnc12` (centres undefined): the GI50 is inactive: > 100 µM.

Take `Cc1cccc2c1Oc1cc(Cl)ccc1C2NC(=O)CCN1CCN(CCO)CC1` (centres undefined): the GI50 was inactive: 17.9 µM. `O=C1CSC(c2ccccc2O)N1c1ccc(Oc2ccc(Cl)cc2)c(Cl)c1` (centres undefined): the GI50 is inactive: 20.9 µM. With `O=[N+]([O-])c1cccc(C2N3CCCCC3[C@@H]3c4[nH]c5ccccc5c4CCN23)c1` (some centres undefined) the figure was inactive: 17.5 µM. In the case of `COC1=C(OC)C23CCc4ccc(OC)c(O)c4C2(CCN3)CC1=O` (centres undefined), the GI50 is inactive: > 100 µM. For `Brc1ccc(C2=NCSC(c3ccc(Br)cc3)=N2)cc1` the value was inactive: 26.2 µM; for `CC[C@H]1C=CCC[C@@]2(C[C@@H]3CC[C@H]4[C@@H](C(=O)OCCCCCCCCCCCCCCCC(=O)N(CCCNC(C)=O)C[C@H](CCNC(C)=O)OC(C)=O)[C@@]5(CCC[C@@H](C)O5)NC(=[N+]34)N2)O1`, inactive: 1.71 µM; for `COc1ccccc1N1CCN(CCCCNC(=O)c2ccc([N+](=O)[O-])o2)CC1`, inactive: 9.53 µM. As for `CCOc1cccc2ccc[n+](CC)c12`, the GI50 is inactive: 99.1 µM. Turning to `C/C(=N\Oc1cc(Cl)ncn1)c1ccccn1`, the GI50 was inactive: 40.6 µM. For the molecule `COc1ccc(/N=N/c2ccc3oc(=O)c(C(=O)Nc4ccccc4)cc3c2)cc1`, the GI50 was inactive: 6.32 µM. For `COc1ccc2c(c1)C(=O)C(=O)c1cc(O)c(OC)c(OC)c1-2`, the GI50 was inactive: 7.89 µM. For `COc1ccc2c(c1OC)C(=O)c1cnccc1C2=O` the value was inactive: > 100 µM; for `Cc1c(C(=O)N2CCN(c3ccc([N+](=O)[O-])cc3)CC2)[n+]([O-])c2cc(Cl)c(Cl)cc2[n+]1[O-]`, inactive: 32.4 µM; for `CCCCCCCCCCCCCCCCCCNc1ccn(C2OC(COP(=O)(O)OCC3CCC(n4cnc5c(=O)[nH]cnc54)O3)C(O)C2O)c(=O)n1` (centres undefined), inactive: 52.6 µM. For the molecule `COc1ccc(/C=C2\CCC(C)C3=C2N=c2s/c(=C/c4cccc(Br)c4)c(=O)n2C3c2ccc(OC)c(OC)c2)cc1OC` (centres undefined), the GI50 was inactive: > 100 µM. With `O=C(O)[C@H]1NC[C@H]2C(Br)=NO[C@@H]12` the figure was inactive: > 100 µM. In the case of `CCCCCCCCCCCCCCCCCCNc1ccn(C2OC(COP(=O)(O)OCC3OC(n4cc(C)c(=O)[nH]c4=O)CC3F)C(O)C2O)c(=O)n1` (centres undefined), the GI50 is inactive: 9.44 µM.

`O=C(CN1C(=O)c2ccccc2C1=O)OCC1CCCN2CCCCC12` (centres undefined): the GI50 is inactive: > 100 µM.

For the molecule `COc1ccc(/C=C2\S/C(=N/Nc3nc(-c4ccccc4)cs3)NC2=O)cc1OC`, the GI50 is inactive: 29.9 µM.

Turning to `COc1cc(C23OCC(Cc4cc5c(cc42)OCO5)C3CO)cc(OC)c1OC` (centres undefined), the GI50 is inactive: 6.21 µM. With `NC(=O)c1ncn(C2OC(CO)C(O)C2O)c1NC=O` (centres undefined) the figure was inactive: > 100 µM; with `COc1cc(C2C(C(=O)Nc3ccccc3)=C(C)NC(C)=C2C(=O)Nc2ccccc2)ccc1O`, inactive: 55.3 µM. With `C=CC(Br)(CBr)CCC(Cl)C(C)C` (centres undefined), the GI50 is inactive: 6.92 µM. Take `CSc1c(C#N)c(N)n(-c2ccc(C)cc2)c(=O)c1C#N`: the GI50 was inactive: > 100 µM. For `COC(=O)C1Cc2ccc3c(c2C1=O)CCCC3` (centres undefined) the value was inactive: > 100 µM. On to `O=C1Sc2ccccc2/C1=N/Nc1ccccc1[N+](=O)[O-]`, for which the GI50 is inactive: > 100 µM. As to `CCOc1ccc(N/C(=C(/C(Cl)=C(/Cl)N(CC)CC)[N+](=O)[O-])n2nnc3ccccc32)cc1`, the GI50 is inactive: > 100 µM. With `COC(=O)c1nc2n(n1)-c1ccccc1C(=O)N(Cc1ccccc1)C2` the figure was inactive: 36.1 µM.

As for `CC[C@@]1(O)C(=O)OCc2c1cc1n(c2=O)Cc2c-1nc1ccccc1c2/C=N/NC(=O)c1ccc(N)cc1`, the GI50 was inactive: 10.4 µM.

Consider `CCc1n[nH]c(=O)n1/N=C/c1ccccc1Cl`, for which the GI50 was inactive: > 100 µM. For `COc1ccc(C(OCC2OC(n3ccc(NC(=O)c4ccccc4)nc3=O)C(O)C2O)(c2ccccc2)c2ccccc2)cc1` (centres undefined) the value was inactive: 29.9 µM; for `COc1ccccc1C(=O)NO`, inactive: > 100 µM; for `CC1(C)COC2(OC1)C1=NS(=O)(=O)CC13CCC2C3(C)C` (centres undefined), inactive: > 100 µM. Consider `O=c1[nH]c(=O)n(C2CC(O)C(CO)O2)cc1I` (centres undefined), for which the GI50 is inactive: > 100 µM. Consider `Cn1cnc([N+](=O)[O-])c1SC1=NCCS1`, for which the GI50 is inactive: > 100 µM. Turning to `COc1cc2c3c(c4cc(OC)c(OC)cc4c2cc1OC)[C@H](O)[C@@H]1CCCN1C3`, the GI50 is active: < 0.0301 µM.

`O=c1c2ccccc2n2nnc3ccc(NCCNCCO)c1c32`: the GI50 was inactive: 1.36 µM.
